# According to PubChem BioAssay AID504832 (National Center for Advancing Translational Sciences (NCATS), 2011):
# Screen size: about 310,000 compounds; about 18,000 (5.8%) were called active. This list was built around the results that the source calls inconclusive (neither active nor inactive); the mix of calls is not that of the screen. Calls come from the whole dose curve; as a rule, active = well fitted inhibition curve with a large enough effect; inconclusive = small, poorly fitted or top-dose-only effect, or another doubt; inactive = no such curve, though single readings can be large or run the other way. No potency is given beside an inconclusive call; the fits are too rough.
# Experiment: Primary qHTS for delayed death inhibitors of the malarial parasite plastid, 48 hour incubation
# Settings: P. falciparum luciferase growth in erythrocytes; series mostly up to 28.7 µM; activity change, negative = inhibition: at the top concentration
# Procedure, shortened: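 Luciferase-expressing parasites in RBCs, 2% Hct / 0.1% parasitemia final; RPMI 1640 + 0.5% Albumax; 37 C, 5% CO2, one generation; luminescence read-out, lower signal = inhibition.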
# % is set by controls: 0 for no effect and ±100 for the full control effect; potency is the fitted concentration of half-maximal effect; tags give direction and shape of the fitted curve.
SMILES,Potency,"activity change, negative = inhibition"
CCn1c(SCC(=O)NCCc2ccccc2)nc2sc3c(c2c1=O)CCN(C)C3,active: 1.65 µM,
CCOc1ccc(N2C(=O)CC(N3CCN(c4ccccc4OC)CC3)C2=O)cc1 (centres undefined),active: 2.94 µM,
COc1ccc(CCN2C(=O)c3ccccc3NC2c2cc(Cl)c(O)c(OC)c2)cc1 (centres undefined),"inconclusive [inhibitor, partial curve]",
Cc1ccsc1C(=O)OCC(=O)N1CCOCC1,,inactive: 63.9%
CCC1CCCCN1CCCNC(=O)C1CCN(c2nnc(-n3cccc3)s2)CC1 (centres undefined),"inconclusive [inhibitor, partial curve]",
Cc1cccc(/C=C2\Oc3cc(OS(C)(=O)=O)ccc3C2=O)c1,,inactive: 16.1%
Cc1c(N(C)CS(=O)(=O)O)c(=O)n(-c2ccccc2)n1C,inactive,
C[C@@H](NC(=O)c1[nH]cnc1C(=O)Nc1nccs1)c1ccccc1,"inconclusive [inhibitor, single point]",
Nc1c(C(=O)CSc2nccn2-c2ccc(Cl)cc2)c(=O)[nH]c(=O)n1C1CC1,"inconclusive [inhibitor, single point]",
O=C(c1cc2c(F)cccc2s1)N1CCCC1,,inactive: -9.55%
COc1ccc(OC)c(N(CC(=O)N2CCCCC2)S(=O)(=O)c2ccc(OC)c(OC)c2)c1,"inconclusive [inhibitor, partial curve]",
CCOc1ccc2nc3c(cc2c1)CN(CCOC)C(=NC)S3,"inconclusive [inhibitor, single point]",
COc1ccc(C(CNC(=O)COc2ccc([N+](=O)[O-])cc2)N2CCCCC2)cc1 (centres undefined),"inconclusive [inhibitor, partial curve]",
CSCCC(NC(=O)c1ccccc1Br)C(=O)NCC(c1ccco1)N1CCCCC1 (centres undefined),"inconclusive [inhibitor, single point]",
COc1ccccc1/C=C/C(=O)NNC(=O)c1cc(C)oc1C,"inconclusive [inhibitor, single point]",
Cn1c(CCc2nc3ccccc3[nH]2)nnc1SCC#N,"inconclusive [inhibitor, partial curve, poor fit]",
CCN(CC)CCCN(C(=O)c1ccc(F)cc1)c1nc(-c2ccc(OC)cc2)cs1,"inconclusive [inhibitor, partial curve, poor fit]",
CC12CN(C(=O)c3ccccc3)C3(C#N)CC1CCC23C (centres undefined),"inconclusive [inhibitor, partial curve, poor fit]",
CCOC(=O)c1c(/N=C/c2cccc([N+](=O)[O-])c2O)sc(C)c1C,"inconclusive [inhibitor, single point]",
CCC(C)(C)n1nnnc1C(c1cc2cccc(C)c2[nH]c1=O)N1CCCC1 (centres undefined),"inconclusive [inhibitor, full curve]",
O=C(Oc1ccc(Cl)c2cccnc12)c1cccnc1,"inconclusive [inhibitor, full curve, poor fit]",
C[C@H](NC(=O)c1nc[nH]c1C(=O)NCCCCCNC(=O)OC(C)(C)C)c1ccccc1,active: 10.4 µM,

SMILES,Potency,"activity change, negative = inhibition"
O=C(NC1(Cc2ccccc2)CCN(CCCc2ccccc2)C1=O)c1ccccc1 (centres undefined),"inconclusive [inhibitor, single point]",
NC(=S)N=Nc1c(O)n(Cc2ccccc2)c2ccccc12,"inconclusive [inhibitor, single point]",
O=C(O)CC(=O)Nc1ccc(Oc2ccc(C(F)(F)F)cn2)c(Cl)c1,"inconclusive [inhibitor, single point]",
CCCCNC(=O)CSc1nc2ccc(N3CCOCC3)cc2c(=O)n1CCc1ccccc1,"inconclusive [inhibitor, partial curve, poor fit]",
CN1CCN(C(=O)c2cc3cc(F)ccc3[nH]2)CC1,active: 14.7 µM,
CCOc1c(OC)cccc1C(=O)NCC1(c2ccccc2)CCCC1,"inconclusive [inhibitor, partial curve]",
CN(C(=O)c1ccc(S(=O)(=O)N2CCOCC2)cc1)C1CCS(=O)(=O)C1 (centres undefined),,inactive: -13.5%
CCOc1cc2c3c(c1)C(C)CC(C)(C)N3C(=O)C2=O (centres undefined),"inconclusive [inhibitor, partial curve, poor fit]",
CC(C)c1ccc(-n2cnn(-c3ncccc3[N+](=O)[O-])c2=O)cc1,,inactive: 122%
COC(=O)C(NNc1ccccc1C)(NC(=O)c1ccc(F)cc1)C(F)(F)F (centres undefined),,inactive: -28.3%
COc1ccc(C)cc1S(=O)(=O)Nc1cccc(Cl)c1,"inconclusive [inhibitor, single point]",
CN(Cc1ccccc1)CC1CCCN(CCc2ccccc2F)C1 (centres undefined),"inconclusive [inhibitor, partial curve, poor fit]",
CS(=O)(=O)c1ccc(SCC(=O)NC2CCS(=O)(=O)C2)c([N+](=O)[O-])c1 (centres undefined),,inactive: 0.697%
CCOC(=O)N1CCN(C(=O)CCNS(=O)(=O)c2ccc3c(c2)c(=O)n(C)c(=O)n3C)CC1,,inactive: -16.8%
O=C(O)c1cc(NS(=O)(=O)c2cccs2)cc(NS(=O)(=O)c2cccs2)c1,"inconclusive [inhibitor, single point]",
Cc1ccccc1Nc1nc(N)nc(COC(=O)c2cccc(S(=O)(=O)N(C)c3ccccc3)c2)n1,"inconclusive [inhibitor, partial curve]",
COc1cc(N=c2ssnc2Cl)c(OC)cc1Cl,inactive,
CC(C)C1CC(CCNCc2ccc3c(c2)OCO3)(c2ccccc2)CCO1 (centres undefined),"inconclusive [inhibitor, single point]",
N=c1n(CCN2CCOCC2)c2ccccc2n1Cc1ccccc1Br,"inconclusive [inhibitor, full curve, poor fit]",
COc1ccc(OCc2cc(-c3ccc(Cl)cc3)no2)cc1,,inactive: 258%
Cc1cc(NC(=O)COC(=O)c2c(Cl)cccc2Cl)no1,"inconclusive [inhibitor, single point]",
O=C(Nc1ccc(O)c2c(=O)cc(-c3ccccc3Cl)oc12)c1ccc(Cl)cc1Cl,,inactive: 1.78%
